Experimental data from publication PMC9890698 (BMC Biology, 2023).
These are yes or no findings as the source states them, for the method shown. In cells and extracts the contact can be indirect. Some results given as binding are weak or reduced against the parent protein; the word gives no strength.

Protein sequences, listed by entry. Tags and fused reporters are not part of them.
UniProt P47900: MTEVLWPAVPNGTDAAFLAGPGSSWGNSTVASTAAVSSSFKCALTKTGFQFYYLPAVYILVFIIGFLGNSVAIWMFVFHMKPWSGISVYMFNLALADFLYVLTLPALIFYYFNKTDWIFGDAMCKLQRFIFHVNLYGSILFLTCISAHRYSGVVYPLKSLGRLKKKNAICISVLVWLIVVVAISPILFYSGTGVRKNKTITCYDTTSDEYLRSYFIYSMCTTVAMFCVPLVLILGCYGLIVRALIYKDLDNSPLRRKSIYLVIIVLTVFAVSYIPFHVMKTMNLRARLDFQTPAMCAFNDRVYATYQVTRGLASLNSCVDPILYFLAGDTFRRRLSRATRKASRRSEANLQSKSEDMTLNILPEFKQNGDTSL
UniProt Q9H244: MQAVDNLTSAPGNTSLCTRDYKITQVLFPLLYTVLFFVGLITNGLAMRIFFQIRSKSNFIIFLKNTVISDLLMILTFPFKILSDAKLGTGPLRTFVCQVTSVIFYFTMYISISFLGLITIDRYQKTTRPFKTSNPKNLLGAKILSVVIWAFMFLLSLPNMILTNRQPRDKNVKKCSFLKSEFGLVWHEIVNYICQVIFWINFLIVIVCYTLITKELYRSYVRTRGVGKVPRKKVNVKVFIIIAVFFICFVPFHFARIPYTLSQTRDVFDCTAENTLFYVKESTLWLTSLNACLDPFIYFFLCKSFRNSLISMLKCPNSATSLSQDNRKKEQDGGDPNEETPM
UniProt P25095: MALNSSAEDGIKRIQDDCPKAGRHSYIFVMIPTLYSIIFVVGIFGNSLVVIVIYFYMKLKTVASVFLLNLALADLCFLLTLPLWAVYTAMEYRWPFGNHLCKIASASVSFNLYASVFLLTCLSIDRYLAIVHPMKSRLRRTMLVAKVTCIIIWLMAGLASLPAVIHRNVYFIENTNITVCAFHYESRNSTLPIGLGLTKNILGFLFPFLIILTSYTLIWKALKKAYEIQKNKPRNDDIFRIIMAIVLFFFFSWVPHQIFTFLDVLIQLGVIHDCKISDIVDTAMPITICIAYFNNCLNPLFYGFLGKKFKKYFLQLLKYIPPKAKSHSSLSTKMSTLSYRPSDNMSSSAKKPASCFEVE
UniProt P32121: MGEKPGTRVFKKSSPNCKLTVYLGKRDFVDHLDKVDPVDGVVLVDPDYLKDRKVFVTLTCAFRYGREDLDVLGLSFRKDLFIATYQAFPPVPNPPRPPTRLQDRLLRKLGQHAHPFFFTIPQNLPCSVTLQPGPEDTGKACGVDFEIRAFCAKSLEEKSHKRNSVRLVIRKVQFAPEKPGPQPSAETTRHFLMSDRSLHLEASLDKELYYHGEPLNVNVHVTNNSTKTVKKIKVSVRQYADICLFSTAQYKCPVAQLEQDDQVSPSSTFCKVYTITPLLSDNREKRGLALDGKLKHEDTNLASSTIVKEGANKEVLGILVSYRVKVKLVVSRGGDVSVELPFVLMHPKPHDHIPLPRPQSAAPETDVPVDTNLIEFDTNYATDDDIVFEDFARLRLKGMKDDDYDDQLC

What was measured:
[1] = target: Human P2Y1 receptor fused to Venus in the C-terminus intracellular region (human) (UniProt P47900); assay: FRET or BRET; BRET1, basal signal in HEK293T/17 cells expressing β-arrestin 2-RLuc alone or with receptor-Venus, no agonist; also with 0.2 U/mL apyrase; coelenterazine h 5 μM
[2] = target: Human P2Y12 receptor fused to Venus in the C-terminus intracellular region (human) (UniProt Q9H244); assay: as above
[3] = target: Human P2Y1 receptor fused to Venus in the C-terminus intracellular region (human) (UniProt P47900); assay: FRET or BRET; BRET1 saturation curves in HEK293T/17 cells: fixed amount of β-arrestin 2-RLuc and increasing amounts of receptor-Venus or Venus; Net BRET, nonlinear regression with a one-site binding model
[4] = target: Human P2Y12 receptor fused to Venus in the C-terminus intracellular region (human) (UniProt Q9H244); assay: as above
[5] = target: Human P2Y1 receptor fused to Venus in the C-terminus intracellular region (human) (UniProt P47900); assay: FRET or BRET; BRET1 in HEK293T/17 cells co-expressing β-arrestin 2-RLuc and receptor-Venus, after stimulation or not with ADP (10 μM), AngII (10 μM), MRS2179 (10 μM) or 2MeSADP (10 μM) for 5 or 15 min; kinetics read at 20-s intervals; also with decreasing amounts of P2Y1-R-Venus vector
[6] = target: Human P2Y12 receptor fused to Venus in the C-terminus intracellular region (human) (UniProt Q9H244); assay: as above
[7] = target: Rat angiotensin II type 1 receptor fused to Venus in the C-terminus intracellular region (rat) (UniProt P25095); assay: as above

binding [1]: binds
binding [2]: no binding
binding [3]: binds
binding [4]: no binding
binding [5]: binds
binding [6]: no binding
binding [7]: binds
Substance: β-arrestin 2 fused to the Renilla reniformis luciferase (RLuc) (from UniProt P32121 1-409)
